The supplement of paper PMC11417369
Some of the results follow.

Tested on: PfHDP1 homeodomain (GST-tagged)
Assay: gcPBM binding intensity (ln(normalized median fluorescence intensity)); higher = stronger DNA binding
Summary of the method: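 GST-fused DNA-binding domains of P. falciparum, expressed in E. coli, were applied at about 25 μg on average for 1 h to an Agilent 4 × 180k array of primer-extended double-stranded 36-bp intergenic genomic probes and negative controls. Binding intensity is the highest Masliner-normalised natural-log median intensity across replicate spots of either probe orientation, measured with Alexa488 anti-GST antibody and a 488 nm scan.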

Sequence | gcPBM binding intensity (ln)
AATAATCTATATTGTACACACAAAATGGGAAAAAAA [CACACA_site6969] | 6.89
AATTAGATTTACTGAAGTACTTAATTTATTTTATTA [XGTACX_site3407] | 6.24
ATAAATGAAAAAAAGCGTACATATAAAAAAATATAT [XGTACX_site5063] | 6.28
TGTAAATAATATAATAGTACGCATATTTTTATTGAA [XGTACX_site284] | 6.34
ACTTACCCATTTATTACACACATAAAGGAAAATTTT [CACACA_site4873] | 7.44
CTTATGTGCATACCTACACACTTACAGATATATATA [CACACA_site5622] | 9.61
TAGGAAGAATTACTGTGTACTAAAATATTAAAAAGT [XGTACX_site4909] | 6.56
TTCAAATATTTTATTTGTACATAAAAAAGAAAGTTA [XGTACX_site8287] | 6.21
GATTTTTTTTTTTTTTCACACACTAATAATATTATC [CACACA_site464] | 6.74
TGTTTATGTATCAATTGTACAAAAAAAAAAAAAAAA [XGTACX_site1590] | 6.43
TTCAAAAAAATGTATACACACATAAGTATAATATAA [CACACA_site3758] | 6.64
TAAATAATATCTATCACACACGCATATATACATATA [CACACA_site2622] | 6.42
GTCGCATTTTATACAAGTACACATGAATTATACAAC [XGTACX_site2200] | 7.31
ATTATTAAAAAGATGTAAATAAATGAATATATGCTT [CACACA_negctrl_site539] | 6.52
TATTAAGAATTTACATGTACTTGTTAAATAAGAAAA [XGTACX_site4466] | 6.47
TTCTATATATTTTAATGTACATATATGATTATTCTT [XGTACX_site8294] | 6.61
ATATAGTATAATAAAAGTACATTTTGATTTTTTCTC [XGTACX_site1797] | 6.14
ATATAAATATATGGAAGTACACAAAAAAATTAAAAA [XGTACX_site8624] | 6.67
CATAAGAAAATAAAAACATGCACATAAGAAATATAC [TGCATGCA_site842] | 8.16
AATCTTCATACCAACACATGCACAAAAGAAATAAAA [TGCATGCA_site563] | 8.75
TATATTTATACATATTGTACATTTTATACTTTTACA [XGTACX_site3884] | 6.74
ATTTATAATCAGGGTTGTACACTTATAGAATTTTTA [XGTACX_site4175] | 6.2
CATATAAAAATATGCACACACAGGAATACAAACATA [CACACA_site684] | 9.64

Sequence | gcPBM binding intensity (ln)
AATAAAAAACTACAATATACAAAATTATTAAATCAA [GTGCAC_negctrl_site703] | 6.12
AAACGTACATAATACACACACATGTATCCATATAAA [CACACA_site5173] | 7.07
ACCTAAGAACTATTTACACACATATACAAAATATAT [CACACA_site2459] | 6.93
ATTGTTCTATGATTTGTACACACTTTTTTTTAAAAT [CACACA_site2825] | 7.27
AATAAAATGAGATGTTGTACAGTTTTGATATATGCA [XGTACX_site3052] | 6.34
AAGTTTATCACAGCCACGCACACATAATATATGTAT [CACACA_site3670] | 7
TTTAAAAATGCTACATGTACAAAATAAAATATAATA [XGTACX_site2905] | 6.87
ATATATATATATAAAAGTACATGCTTATATATATAT [XGTACX_site3786] | 9.02
TACAAAATATATATGACACACATAAAAAAAAGTATA [CACACA_site1373] | 6.63
CACCCACTAATAAACACACACATATATATATATATA [CACACA_site389] | 9.39
TATATAAACATACATACACACATACAATAAGTAAAA [CACACA_site5118] | 6.97
ATTTTTTTTATTCAATGTACTTTTTTTTATATATAT [XGTACX_site4978] | 6.81
GTATGTATGTATGTATGTACTTATGTAGTCTTAGTT [XGTACX_site1710] | 7.52
AGTGTAGGTATATAAACACACATACAGATATATAAT [CACACA_site4900] | 6.66
TAAAAAATAAAATGGACACACACGTTCAAATTTAGA [CACACA_site2083] | 6.5
TATTCAGGTCCAATGGTGCAATATATTTTTGTAATA [GTGCAC_site9607] | 10.6
ATATATATTTTTTAATGTACTTATATTTTTATAATA [XGTACX_site2103] | 6.44
ATACAATAAAGGTGTACACATATATGATGCAAGATG [CACACA_site5897] | 8.05
GGTCATATTTTTTGCACACAAAAAAAAATATAAAAT [CACACA_site3381] | 10.2
AGCAATTGTGTTTTCACACATAAATATATTCCTCAC [CACACA_site5021] | 6.49
AATTAAACTCACACCACACACAAAAAAAAAAAAAAA [CACACA_site693] | 6.15
TTAATAAACCTTAGATGTACAGTTATATATAAAATA [XGTACX_site6681] | 6.59
